{"source": "PubChem BioAssay AID1347165", "about": "(National Center for Advancing Translational Sciences (NCATS), 2019)", "note": "Values joined by “and” are separate entries in the source; they are usually repeats but may differ in a detail not shown here. Identical values can stand only once. Among all 220,000 compounds or so, about 5,700 (2.6%) were called active. Inconclusive results, whose numbers are uncertain, are shown with a selection of clear calls. Calls follow the shape of the dose curve; as a rule, active = well fitted inhibition curve with a large enough effect; inconclusive = small, poorly fitted or top-dose-only effect; inactive = no such curve, though single readings can be large or run the other way. A potency beside an inconclusive call is a rough fit, not a confirmed value. Potency is read from the fitted curve at half-maximal effect; tags tell the direction and shape of the fitted curve.", "data": [{"biological_target": "Lysine-specific demethylase 5B (Homo sapiens) (UniProt Q9UGL1)", "sequence (Q9UGL1 whole entry, looked up)": "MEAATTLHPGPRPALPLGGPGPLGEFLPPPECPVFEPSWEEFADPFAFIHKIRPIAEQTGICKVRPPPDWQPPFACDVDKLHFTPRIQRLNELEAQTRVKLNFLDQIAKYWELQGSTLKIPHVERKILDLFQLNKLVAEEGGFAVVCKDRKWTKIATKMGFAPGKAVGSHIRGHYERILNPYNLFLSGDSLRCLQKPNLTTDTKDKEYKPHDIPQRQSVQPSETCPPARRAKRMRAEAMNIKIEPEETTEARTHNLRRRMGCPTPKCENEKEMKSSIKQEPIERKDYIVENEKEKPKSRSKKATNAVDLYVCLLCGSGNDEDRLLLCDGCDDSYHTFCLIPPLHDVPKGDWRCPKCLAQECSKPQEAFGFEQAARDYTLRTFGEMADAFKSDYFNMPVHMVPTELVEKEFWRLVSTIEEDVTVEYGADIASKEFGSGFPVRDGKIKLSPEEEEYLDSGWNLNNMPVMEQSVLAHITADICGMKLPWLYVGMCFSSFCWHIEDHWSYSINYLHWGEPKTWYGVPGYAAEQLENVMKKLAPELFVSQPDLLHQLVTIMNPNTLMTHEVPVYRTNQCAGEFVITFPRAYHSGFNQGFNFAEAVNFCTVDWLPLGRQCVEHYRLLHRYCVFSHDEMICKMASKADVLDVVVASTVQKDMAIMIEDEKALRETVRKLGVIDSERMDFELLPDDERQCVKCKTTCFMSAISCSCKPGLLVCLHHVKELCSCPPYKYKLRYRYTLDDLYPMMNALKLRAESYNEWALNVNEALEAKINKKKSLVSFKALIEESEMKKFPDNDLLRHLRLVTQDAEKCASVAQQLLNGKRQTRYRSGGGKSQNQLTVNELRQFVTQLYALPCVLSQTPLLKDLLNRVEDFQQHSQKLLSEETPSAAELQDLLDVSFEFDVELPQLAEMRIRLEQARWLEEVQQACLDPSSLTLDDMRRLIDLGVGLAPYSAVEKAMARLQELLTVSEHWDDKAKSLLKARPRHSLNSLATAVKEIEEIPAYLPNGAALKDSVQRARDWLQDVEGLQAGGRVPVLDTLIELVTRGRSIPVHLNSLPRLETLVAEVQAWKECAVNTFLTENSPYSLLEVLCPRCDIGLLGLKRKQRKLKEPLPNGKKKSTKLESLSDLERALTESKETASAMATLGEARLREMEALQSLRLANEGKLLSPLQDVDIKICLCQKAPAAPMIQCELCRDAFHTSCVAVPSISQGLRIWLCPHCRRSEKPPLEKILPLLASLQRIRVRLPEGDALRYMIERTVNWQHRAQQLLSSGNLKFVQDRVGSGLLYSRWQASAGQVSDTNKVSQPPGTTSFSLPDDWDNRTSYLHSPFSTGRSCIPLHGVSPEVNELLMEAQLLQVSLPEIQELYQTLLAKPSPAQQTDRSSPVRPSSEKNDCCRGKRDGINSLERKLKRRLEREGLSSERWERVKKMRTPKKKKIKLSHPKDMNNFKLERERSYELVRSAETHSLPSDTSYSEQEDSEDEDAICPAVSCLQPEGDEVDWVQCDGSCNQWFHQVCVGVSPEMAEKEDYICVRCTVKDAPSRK", "experiment": "Primary screen for KDM5B Histone Demethylases FDH-coupled qHTS; also: nearly all actives have a fitted effect of over 70% in size; as to activity change, negative = inhibition: 0% is about no effect", "conditions": "FDH-coupled NADH fluorescence (FDH is formaldehyde dehydrogenase); activity change, negative = inhibition: at 57.7 µM (top of the series) unless noted", "procedure,_shortened": "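Coupled FDH/NAD⁺ fluorescence readout. KDM5BΔAP 200 nM final; compound titration, 10 min RT preincubation; substrate mix 12.5 µM H3K4me3, 25 µM 2-OG, 50 µM Fe(II), 100 µM ascorbate, 0.25 mM NAD⁺, 0.25 U/mL FDH; ΔRFU over 30 min.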", "values": [{"smiles": "Cc1ccc(C)c(NC(=O)C(C)SCc2nc(-c3ccccc3)oc2C)c1", "note": "(centres undefined)", "Potency": "inactive"}, {"smiles": "CCOc1ccccc1NC1(c2ccccc2)C(=O)c2ccccc2C1=O", "Potency": "inconclusive: 12.6 µM [inhibitor, partial curve, poor fit]"}, {"smiles": "C#CCNC(=O)c1ccc2nccn2c1", "Potency": "active: 141 µM"}, {"smiles": "O=C(CN1Cc2nc(-c3cc4ccccc4o3)ccc2OCC1=O)N1CCCC1", "Potency": "active: 28.2 µM"}, {"smiles": "O=c1n(-c2ccc([N+](=O)[O-])cc2)nc2n1CCN(Cc1ccc(OC(F)(F)F)cc1)C2", "Potency": "inconclusive: 15.8 µM [inhibitor, partial curve]"}, {"smiles": "Cc1nn(CCC#N)c(C)c1[C@@H]1C=C[C@@H](NC(=O)c2cccs2)C1", "Potency": "inconclusive: 31.6 µM [inhibitor, partial curve, poor fit]"}, {"smiles": "CCOc1ccc(C(=O)Nc2cc(-c3nc4cc(OC)ccc4o3)ccc2C)cc1[N+](=O)[O-]", "Potency": "inconclusive: 12.6 µM [inhibitor, partial curve, poor fit] and inconclusive: 31.6 µM [inhibitor, single point]"}, {"smiles": "Cc1ccc(S(=O)(=O)c2cn(CC(=O)Nc3cccc(Cl)c3)c3ccccc3c2=O)cc1", "Potency": "inconclusive: 20 µM [inhibitor, partial curve, poor fit]"}, {"smiles": "CN1c2cc(C(=O)NC3CCCCCCC3)ccc2C(=O)N2CCCC21", "note": "(centres undefined)", "Potency": "inconclusive: 25.1 µM [inhibitor, partial curve, poor fit]"}, {"smiles": "COCC(=O)N[C@@H]1CN(Cc2cccn2C)C[C@H]1CO", "Potency": "inconclusive: 14.1 µM [inhibitor, single point]"}, {"smiles": "CCn1c(=O)n(-c2ccc3c(c2)OCO3)c2nc(-c3ccc(C(C)C)cc3)nc(C(N)=O)c21", "activity change, negative = inhibition": "inconclusive: -30.2% [inhibitor]"}, {"smiles": "O=c1cc(-c2ccccn2)oc2c(NC3CCOCC3)nccc12", "Potency": "active: 31.6 µM"}, {"smiles": "Cc1cc(Br)cc(C)c1OC(C)C(=O)O", "note": "(centres undefined)", "Potency": "inactive"}, {"smiles": "CCNC(=O)N(C)[C@H]1C[C@H]2c3[nH]c4cccc(-c5cccc(F)c5)c4c3CCN2C(=O)[C@H]1[C@H](C)O", "Potency": "inconclusive: 25.1 µM [inhibitor, partial curve, poor fit]"}, {"smiles": "CCOC(=O)c1ccc(NC(=O)c2ccc3c(c2)N(CC)C2CCCCN2C3=O)cc1", "note": "(centres undefined)", "Potency": "inconclusive: 31.6 µM [inhibitor, partial curve, poor fit]"}, {"smiles": "O=C([C@@H]1C[C@H](F)CN1C(=O)NC1CCCCC1)N1CCc2ccccc2C1", "Potency": "inconclusive: 7.08 µM [inhibitor, partial curve]"}, {"smiles": "COCCn1cnc2ccc(-c3ccccc3)nc2c1=O", "Potency": "active: 35.5 µM"}, {"smiles": "COc1ccccc1-c1nc(S(=O)(=O)c2ccc3c(c2)OCCO3)c(N2CCOCC2)o1", "Potency": "inconclusive: 39.8 µM [inhibitor, single point]"}, {"smiles": "COc1ccc(C(=O)NC2CCN(c3cc(-c4cccs4)[nH]n3)CC2)cc1F", "Potency": "inactive"}, {"smiles": "Cc1nc2ccccc2nc1COC(=O)c1cnc2ccccc2n1", "Potency": "inactive"}, {"smiles": "CCNc1nc(-c2ccc3c(c2)CCC(=O)N3)cs1", "Potency": "inactive"}, {"smiles": "CCOc1ccc(NC(=O)Cn2cc(C(=O)c3cccs3)c3ccccc32)cc1", "Potency": "inconclusive: 35.5 µM [inhibitor, partial curve, poor fit]"}, {"smiles": "COc1ccc(C(=O)N2CCC3(CC2)N=C(c2cccc(Br)c2)NO3)cc1OC", "Potency": "inconclusive: 17.8 µM [inhibitor, partial curve, poor fit]"}, {"smiles": "COc1ccc(CN(CC(=O)NC2CCCC2)C(=O)CN2C(=O)COc3ccccc32)cc1", "Potency": "inactive"}, {"smiles": "O=C(c1cnccn1)N1CCCC2(COc3ccccc3[S+](=O)([O-])N2)C1", "note": "(centres undefined)", "Potency": "inconclusive: 70.8 µM [inhibitor, single point]"}, {"smiles": "O=C(Cn1c(-c2cccs2)cc2ccccc21)N1CCN(c2ccccc2F)CC1", "Potency": "inconclusive: 28.2 µM [inhibitor, partial curve, poor fit]"}, {"smiles": "O=C1ON=C(c2ccccc2)/C1=C/c1ccc(O)c(O)c1", "Potency": "inconclusive: 10 µM [inhibitor, partial curve, poor fit]"}, {"smiles": "CCOc1ccccc1CNC(=O)c1cc(NC(C)=O)cc2nc(C)ccc12", "Potency": "active: 14.1 µM"}, {"smiles": "Clc1cccc(C=Nc2cccc3ccccc23)c1Cl", "Potency": "inconclusive: 22.4 µM [inhibitor, partial curve, poor fit]"}, {"smiles": "Clc1ccccc1Oc1ccc2nnc(-c3ccccc3)n2n1", "Potency": "inconclusive: 28.2 µM [inhibitor, partial curve, poor fit]"}, {"smiles": "O=C(c1cc(-c2ccco2)nc2ccccc12)N1CCCCCC1", "Potency": "inconclusive: 22.4 µM [inhibitor, partial curve, poor fit]"}, {"smiles": "COc1ccc(NC(=O)Cc2c[nH]c3ncc(-c4ccccc4C)cc23)cc1", "Potency": "inconclusive: 35.5 µM [inhibitor, single point]"}, {"smiles": "CCC(CC)C(=O)Nc1ccc2nc(SCc3ccccc3)sc2c1", "Potency": "inconclusive: 25.1 µM [inhibitor, single point]"}, {"smiles": "CC(C)(C)c1nnc2sc(-c3ccc4c(c3)OCO4)nn12", "Potency": "inconclusive: 28.2 µM [inhibitor, partial curve, poor fit]"}, {"smiles": "O=C(Nc1cccc(Cl)c1)c1nc2ccccc2nc1N1CCCC1", "Potency": "inconclusive: 39.8 µM [inhibitor, single point]"}, {"smiles": "O=C(Nc1ccc2oc(-c3cccnc3)nc2c1)c1ccc(-c2cccc(Cl)c2)o1", "Potency": "inconclusive: 2.24 µM [inhibitor, full curve, poor fit]"}, {"smiles": "COc1cccc(CCNC(=O)c2cnc3sc(N4CCCCCC4)nn3c2=O)c1", "Potency": "inconclusive: 14.1 µM [inhibitor, partial curve, poor fit]"}, {"smiles": "CN1c2cc(C(=O)N3CCN(c4ccc(Cl)cc4)CC3)ccc2C(=O)N2CCCCC21", "note": "(centres undefined)", "Potency": "inconclusive: 17.8 µM [inhibitor, partial curve, poor fit]"}, {"smiles": "COc1ccc(S(=O)(=O)c2c(Nc3c(C)cccc3C)sc(C(=O)c3ccc4c(c3)OCO4)c2N)cc1", "Potency": "inconclusive: 15.8 µM [inhibitor, partial curve, poor fit]"}, {"smiles": "COc1ccc(CN[C@H](C)c2onc(C)c2C(=O)O)cc1", "Potency": "inconclusive: 35.5 µM [inhibitor, partial curve, poor fit]"}, {"smiles": "CN(C)c1oc(-c2ccccc2Cl)nc1S(=O)(=O)c1ccc2c(c1)OCCO2", "Potency": "inconclusive: 39.8 µM [inhibitor, single point]"}, {"smiles": "Nc1nnnn1NCc1cc(Cl)ccc1OCc1ccccc1Cl", "Potency": "inconclusive: 39.8 µM [inhibitor, single point]"}, {"smiles": "Cc1cccc(Cn2c(SCCc3ccccc3)nc3c2c(=O)[nH]c(=O)n3C)c1", "Potency": "inactive"}, {"smiles": "CCCc1cc(=O)oc2cc(OCC(=O)NCCc3ccc(S(N)(=O)=O)cc3)ccc12", "Potency": "inconclusive: 28.2 µM [inhibitor, single point]"}, {"smiles": "O=C(Nc1cccc(O)c1)c1cc2nc(-c3ccc(Br)cc3)cc(C(F)(F)F)n2n1", "Potency": "inconclusive: 0.891 µM [inhibitor, full curve, poor fit]"}, {"smiles": "Cc1nc(CN2C(=O)OC3(CCN(Cc4ccc(C(C)C)cc4)CC3)C2(C)c2ccccc2)cs1", "note": "(centres undefined)", "Potency": "inconclusive: 31.6 µM [inhibitor, single point]"}, {"smiles": "CN(Cc1ccc(CN2CCCC(O)(CO)C2)o1)S(C)(=O)=O", "note": "(centres undefined)", "Potency": "inactive"}, {"smiles": "COCc1cnc2c(c1SCC(=O)NC1CCCC1)c(=O)n(C)c(=O)n2C", "Potency": "inactive"}, {"smiles": "Cc1ccc2cc(C(=O)N3CCCC(C(=O)N4CCOCC4)C3)[nH]c2c1", "note": "(centres undefined)", "Potency": "inactive"}, {"smiles": "COc1ccc(N2CCN(C(=O)CSc3c4c(nc5ccc(Cl)cc35)CCCC4)CC2)cc1", "Potency": "inconclusive: 15.8 µM [inhibitor, partial curve, poor fit]"}, {"smiles": "CCN(CC)CCOC(=O)C(Cc1cccc2ccccc12)CC1CCCO1", "note": "(centres undefined)", "Potency": "inconclusive: 39.8 µM [inhibitor, single point]"}, {"smiles": "CC(C)c1ccc(Nc2nnns2)cc1", "Potency": "inconclusive: 35.5 µM [inhibitor, partial curve, poor fit]"}, {"smiles": "CCOc1ccc(CNC(=O)c2ccc3c(c2)N(CC)CCS3)cc1", "Potency": "inconclusive: 28.2 µM [inhibitor, partial curve, poor fit]"}, {"smiles": "Cc1ccc(CN2CCc3nc(C(=O)Nc4ccccc4)oc3CC2)cc1", "Potency": "active: 35.5 µM"}, {"smiles": "CCN(CCc1ccncc1)S(=O)(=O)c1cc(N2C(=O)CCS2(=O)=O)ccc1OC", "Potency": "inactive"}, {"smiles": "COc1ccccc1-c1nc(C(=O)N2CCN(c3ncccn3)CC2)n2ccccc12", "Potency": "inconclusive: 89.1 µM [inhibitor, partial curve, poor fit]"}, {"smiles": "COc1ccccc1C(=O)Nc1ccnn1C1CCN(C(=O)CCN)CC1", "Potency": "inconclusive: 17.8 µM [inhibitor, partial curve]"}, {"smiles": "Cn1nccc1CN1CCCC2(COc3ccccc3C(=O)N2)C1", "note": "(centres undefined)", "Potency": "active: 39.8 µM"}, {"smiles": "COC(=O)COC(=O)COc1ccccc1Cc1ccccc1", "Potency": "inactive"}, {"smiles": "O=C(c1ccccc1F)N1CCC(c2nn(-c3ccc(Cl)cc3)c(=O)[nH]2)CC1", "Potency": "inactive"}, {"smiles": "CC(C)CCn1c(N2CCN(c3cccc(Cl)c3)CC2)nc2c1c(=O)[nH]c(=O)n2C", "Potency": "inconclusive: 39.8 µM [inhibitor, single point]"}, {"smiles": "CCOc1ccc(CCNC(=O)Cn2c(-c3cccs3)cc3cc(F)ccc32)cc1OCC", "Potency": "inconclusive: 31.6 µM [inhibitor, partial curve, poor fit]"}, {"smiles": "CCCc1cc(=O)oc2cc(OCC(=O)C(C)(C)C)ccc12", "Potency": "inconclusive: 25.1 µM [inhibitor, partial curve, poor fit]"}, {"smiles": "CCOC(=O)C1CCN(C(=O)c2ccc3c(c2)N(CC)C2CCCCCN2C3=O)CC1", "note": "(centres undefined)", "Potency": "inconclusive: 15.8 µM [inhibitor, partial curve, poor fit]"}]}]}
